Changes are numbered by the printed parent chain; changes in the protein carry UniProt numbers. This is one part of the list.
T1: RBFOX1 RRM RbFoxmut (Fox-RRM*) (Homo sapiens, UniProt Q9NWB1 109-208, R118D;E147R;N151S;E152T)
T1 sequence: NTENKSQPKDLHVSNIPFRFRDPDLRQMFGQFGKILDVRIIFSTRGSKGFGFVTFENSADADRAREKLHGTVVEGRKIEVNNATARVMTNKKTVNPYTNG

B1: UUGAGAU (DNA:RNA)
RNA: GGGAGACCGGAAUUCAGAUUGUCCUUGAGAUUUAAAUCCCGUCGUAGCCACCA
DNA 1: CAATCTGAATTCCGGTCTCCC
DNA 2: TGGTGGCTACGACGGGATT
B2: GGAGGCA (DNA:RNA)
RNA: B1 RNA with U25G, U26G, G27A, A28G, A30C, U31A
DNA 1: CAATCTGAATTCCGGTCTCCC
DNA 2: TGGTGGCTACGACGGGATT
B3: AGGCAGA (DNA:RNA)
RNA: B1 RNA with U25A, U26G, A28C, G29A, A30G, U31A
DNA 1: CAATCTGAATTCCGGTCTCCC
DNA 2: TGGTGGCTACGACGGGATT
B4: UAGACCU (DNA:RNA)
RNA: B1 RNA with U26A, G29C, A30C
DNA 1: CAATCTGAATTCCGGTCTCCC
DNA 2: TGGTGGCTACGACGGGATT
B5: GUAGAUA (DNA:RNA)
RNA: B1 RNA with U25G, G27A, A28G, G29A, A30U, U31A
DNA 1: CAATCTGAATTCCGGTCTCCC
DNA 2: TGGTGGCTACGACGGGATT
B6: CUAGUGG (DNA:RNA)
RNA: B1 RNA with U25C, G27A, A28G, G29U, A30G, U31G
DNA 1: CAATCTGAATTCCGGTCTCCC
DNA 2: TGGTGGCTACGACGGGATT
B7: GCGAGGU (DNA:RNA)
RNA: B1 RNA with U25G, U26C, A30G
DNA 1: CAATCTGAATTCCGGTCTCCC
DNA 2: TGGTGGCTACGACGGGATT
B8: AUAAACG (DNA:RNA)
RNA: B1 RNA with U25A, G27A, G29A, A30C, U31G
DNA 1: CAATCTGAATTCCGGTCTCCC
DNA 2: TGGTGGCTACGACGGGATT
B9: UUUUCCG (DNA:RNA)
RNA: B1 RNA with G27U, A28U, G29C, A30C, U31G
DNA 1: CAATCTGAATTCCGGTCTCCC
DNA 2: TGGTGGCTACGACGGGATT
B10: CAACCCC (DNA:RNA)
RNA: GGGAGACCGGAAUUCAGAUUGUCCCAACCCCUUAAAUCCCGUCGUAGCCACCA
DNA 1: CAATCTGAATTCCGGTCTCCC
DNA 2: TGGTGGCTACGACGGGATT
B11: GACCAGG (DNA:RNA)
RNA: B10 RNA with C25G, A27C, C29A, C30G, C31G
DNA 1: CAATCTGAATTCCGGTCTCCC
DNA 2: TGGTGGCTACGACGGGATT
B12: AUGAACG (DNA:RNA)
RNA: B1 RNA with U25A, G29A, A30C, U31G
DNA 1: CAATCTGAATTCCGGTCTCCC
DNA 2: TGGTGGCTACGACGGGATT
B13: CACCAUU (DNA:RNA)
RNA: B10 RNA with A27C, C29A, C30U, C31U
DNA 1: CAATCTGAATTCCGGTCTCCC
DNA 2: TGGTGGCTACGACGGGATT
B14: CGUUAAA (DNA:RNA)
RNA: B10 RNA with A26G, A27U, C28U, C29A, C30A, C31A
DNA 1: CAATCTGAATTCCGGTCTCCC
DNA 2: TGGTGGCTACGACGGGATT
B15: GUGGGGU (DNA:RNA)
RNA: B1 RNA with U25G, A28G, A30G
DNA 1: CAATCTGAATTCCGGTCTCCC
DNA 2: TGGTGGCTACGACGGGATT
B16: AGCAGUA (DNA:RNA)
RNA: B1 RNA with U25A, U26G, G27C, A30U, U31A
DNA 1: CAATCTGAATTCCGGTCTCCC
DNA 2: TGGTGGCTACGACGGGATT
B17: GCAGGAU (DNA:RNA)
RNA: B1 RNA with U25G, U26C, G27A, A28G
DNA 1: CAATCTGAATTCCGGTCTCCC
DNA 2: TGGTGGCTACGACGGGATT
B18: ACGGCUU (DNA:RNA)
RNA: B1 RNA with U25A, U26C, A28G, G29C, A30U
DNA 1: CAATCTGAATTCCGGTCTCCC
DNA 2: TGGTGGCTACGACGGGATT
B19: ACGCUAC (DNA:RNA)
RNA: B10 RNA with C25A, A26C, A27G, C29U, C30A
DNA 1: CAATCTGAATTCCGGTCTCCC
DNA 2: TGGTGGCTACGACGGGATT
B20: CCCGGUU (DNA:RNA)
RNA: B1 RNA with U25C, U26C, G27C, A28G, A30U
DNA 1: CAATCTGAATTCCGGTCTCCC
DNA 2: TGGTGGCTACGACGGGATT

molecular target: T1, RBFOX1 RRM RbFoxmut (Fox-RRM*); experiment: EMSA; HiTS-Eq, 1 nM pool, 10 min; buffer printed only for the single-RNA assays: 10 mM Tris pH 7.5, 150 mM NaCl, 3.4 mM EDTA, 0.001% NP-40, 30 C; conditions: tags: His6 N-terminal (pET28a); label: 5' 32P
How it was run: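 Relative association constants, normalised to the cognate motif, were derived by comparing read counts of each RNA species with those of the control reaction. The RNA sequenced was the free fraction, separated by 8% native PAGE after a 10 min equilibration in 50 µL of 1 nM 5′-radiolabelled RNA (7 randomized nucleotides) with increasing concentrations of purified wild-type or mutant RbFox RRM.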

Row | Binder | binding signal
1 | B1 | 0.0842 KA relative to UGCAUGU
2 | B2 | 0.108 KA relative to UGCAUGU
3 | B3 | 0.0922 KA relative to UGCAUGU
4 | B4 | 0.0563 KA relative to UGCAUGU
5 | B5 | 0.148 KA relative to UGCAUGU
6 | B6 | 0.0552 KA relative to UGCAUGU
7 | B7 | 0.0815 KA relative to UGCAUGU
8 | B8 | 0.101 KA relative to UGCAUGU
9 | B9 | 0.064 KA relative to UGCAUGU
10 | B10 | 0.0776 KA relative to UGCAUGU
11 | B11 | 0.0804 KA relative to UGCAUGU
12 | B12 | 0.255 KA relative to UGCAUGU
13 | B13 | 0.0961 KA relative to UGCAUGU
14 | B14 | 0.107 KA relative to UGCAUGU
15 | B15 | 0.128 KA relative to UGCAUGU
16 | B16 | 0.127 KA relative to UGCAUGU
17 | B17 | 0.0833 KA relative to UGCAUGU
18 | B18 | 0.0838 KA relative to UGCAUGU
19 | B19 | 0.0922 KA relative to UGCAUGU
20 | B20 | 0.0629 KA relative to UGCAUGU
